Measured values reported in PubChem BioAssay AID1347428 (National Center for Advancing Translational Sciences (NCATS), 2020).
About 290 (0.32%) of roughly 91,000 compounds were called active. The shares of active, inactive and inconclusive entries below differ from those in the screen. Calls come from the whole dose curve; as a rule, active = well fitted inhibition curve with a large enough effect; inconclusive = small, poorly fitted or top-dose-only effect; inactive = no such curve, though single readings can be large or run the other way. Potencies beside an inconclusive call are fits to weak or partial responses and may not hold up.

biological target: Single-stranded DNA cytosine deaminase (Homo sapiens) (UniProt Q9GZX7); assay: Primary qHTS assay for inhibitors of Activation Induced Cytidine Deaminase (AID): AID signal; details: AID deamination FRET fluorescence, UDG-coupled, 4 h; activity change, negative = inhibition: at 115 µM (top of the series); note: nearly all actives have a fitted effect of over 25% in size
UniProt Q9GZX7, sequence (Q9GZX7 whole entry, looked up): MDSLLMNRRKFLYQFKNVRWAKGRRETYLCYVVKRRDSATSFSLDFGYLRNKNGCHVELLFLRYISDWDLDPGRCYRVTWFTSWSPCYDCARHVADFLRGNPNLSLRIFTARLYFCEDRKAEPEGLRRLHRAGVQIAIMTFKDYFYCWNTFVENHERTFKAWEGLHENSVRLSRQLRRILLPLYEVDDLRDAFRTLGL
% is set by controls: 0 for no effect and ±100 for the full control effect; potency is the fitted concentration of half-maximal effect; tags give direction and shape of the fitted curve.

Row | Compound | activity change, negative = inhibition | Potency
1 | Cc1c(O)ccc2c(CN(C)CC(=O)Nc3ccc(Cl)cc3)cc(=O)oc12 | inactive: 1.35% | –
2 | Cc1cc(C)c2[nH]c(C)c(CN3CCC(C)CC3)c(=O)c2c1 | inactive: 11.8% | –
3 | CCOc1ccccc1NC(=O)c1cnn2c(C(F)F)cc(-c3ccccc3)nc12 | – | inconclusive: 15.8 µM [inhibitor, full curve, poor fit]
4 | Cc1ccc(OCC(=O)N(Cc2ccco2)Cc2ccc(C)o2)cc1 | – | inconclusive: 50.1 µM [inhibitor, partial curve, poor fit]
5 | CCCCCn1c(-c2ccc(OC)c(OC)c2)nc2ccccc21 | – | inconclusive: 28.2 µM [inhibitor, partial curve]
6 | CCc1ccc(-n2c(Cc3ccccc3)nnc2SCc2nc(-c3cccs3)no2)cc1 | – | active: 39.8 µM
7 | COc1ccc(CN2CCN(c3ncnc4sc5c(c34)CC(C)CC5)CC2)cc1F (centres undefined) | – | inconclusive: 28.2 µM [inhibitor, single point]
8 | CC1(C)CS(=O)(=O)N(c2ccc(C(=O)Nc3ccc4c(c3)OCO4)cc2)C1=O | inactive: 21.2% | –
9 | Cn1c(Cl)c(C=O)c2ccccc21 | inactive: -0.331% | –
10 | COc1ccc(S(=O)(=O)NCc2ccco2)cc1C(C)(C)C | inactive: 0.0326% | –
11 | Cc1ccc(Cl)cc1N1CCN(C(=O)CCn2c(=O)c3cccn3c3cccnc32)CC1 | – | inconclusive: 31.6 µM [inhibitor, single point]
12 | Cn1nc(C(=O)OCC(=O)NC(C)(C)C)c2ccccc2c1=O | inactive: 1.69% | –
13 | COc1ccc(CCNC(=O)c2cc3c(-c4ccc(OC)c(OC)c4)nn(C)c3s2)cc1OC | – | inconclusive: 50.1 µM [inhibitor, partial curve, poor fit]
14 | CCN(CC)c1ccc(/C=N/NC(N)=S)cc1 | inactive: 5.31% | –
15 | Cc1ccc2nc(NC(=O)c3ccc(S(=O)(=O)N4CCCc5ccccc54)cc3)sc2c1 | – | inconclusive: 79.4 µM [inhibitor, partial curve, poor fit]
16 | Cc1ccn2cc(CNC(=O)Cc3cn(C)c4ccccc34)nc2c1 | inactive: -6.43% | –
17 | Cc1cccc(N2CCN(C(=O)C(C)n3nc(C)n4c(cc5occc54)c3=O)CC2)c1C (centres undefined) | – | inconclusive: 50.1 µM [inhibitor, partial curve, poor fit]
18 | Cc1ccc(S(=O)(=O)NCCc2nnc3ccc(SCc4ccccc4F)nn23)cc1 | – | inconclusive: 39.8 µM [inhibitor, full curve, poor fit]
19 | Cc1ccc(C23CC4CC(CC(C(=O)NC(C)(C)CO)(C4)C2)C3)cc1 | inactive: -6.89% | –
20 | O=C(CSc1nc2ccsc2c(=O)n1-c1ccccc1)NC1CCCC1 | inactive: 6.28% | –
21 | COc1ccc(C(=O)NCCc2csc(-c3ccc(Cl)cc3)n2)cc1 | – | inconclusive: 79.4 µM [inhibitor, single point]
22 | COc1ccc(-c2cccc(NS(=O)(=O)c3cc(C(F)(F)F)ccc3Cl)c2)nn1 | – | inconclusive: 70.8 µM [inhibitor, single point]

Row | Compound | activity change, negative = inhibition | Potency
23 | Cn1cc(CCCC(=O)NCc2cccc(Br)c2)c2ccccc21 | – | inconclusive: 50.1 µM [inhibitor, partial curve, poor fit]
24 | Cc1ccccc1Cn1nnc2sc3c(c2c1=O)CCCC3 | – | inconclusive: 39.8 µM [inhibitor, partial curve, poor fit]
25 | CCOc1ccc(NC(=O)Nc2nnc(N3CCCCC3C)s2)cc1 (centres undefined) | – | inconclusive: 39.8 µM [inhibitor, full curve, poor fit]
26 | NC(=O)c1ccc(NC(=O)c2cn(Cc3ccccc3)nc2-c2ccc(Cl)cc2)cc1 | inactive: 2.14% | –
27 | CC1(CBr)C2CCC1(CBr)c1nc3cc(Cl)c(Cl)cc3nc12 (centres undefined) | – | inconclusive: 100 µM [inhibitor, full curve]
28 | Cc1cc(C)cc(OCCn2cnc3c2c(=O)n(C)c(=O)n3C)c1 | inactive: -27.2% | –
29 | CCN(CC)c1ccc(C(=O)N2CCc3c([nH]c4ccccc34)C2c2ccc(F)cc2)cc1 (centres undefined) | – | inconclusive: 22.4 µM [inhibitor, full curve]
30 | COc1ccc(OC)c(CCNC(=O)c2c(C)oc3ncn(CC(C)C)c(=O)c23)c1 | – | inconclusive: 79.4 µM [inhibitor, single point]
31 | CCOc1ccc2c(=O)c(Oc3cccc(OC)c3)c(C)oc2c1 | inactive: -4.45% | –
32 | Cc1ccc(-c2coc3cc4oc(=O)cc(-c5ccccc5)c4cc23)cc1 | inactive: -0.817% | –
33 | CCC(C)NC(=O)c1ccc2c(c1)sc1nc(-c3ccc(OC)cc3)cn12 (centres undefined) | inactive: -9.53% | –
34 | O=C(NCC(c1cccs1)S(=O)(=O)c1cccs1)c1ccc(F)c(F)c1 (centres undefined) | inactive: -5.45% | –
35 | Cc1ccc(C)c(N2CCN(c3nc4ccc(C)cc4nc3-n3nc(C)cc3C)CC2)c1 | – | inconclusive: 100 µM [inhibitor, single point]
36 | CCc1ccc(C(=O)C(C)OC(=O)c2ccc(CO)cc2)cc1 (centres undefined) | inactive: 0.948% | –
37 | Cc1ccc(-n2c(SCC(=O)Nc3ccccc3F)nc3c(=O)[nH]cnc32)cc1 | inactive: -7.89% | –
38 | Cc1ccc2c(CC(=O)Nc3ccc(S(=O)(=O)N4CCCCC4C)cc3)coc2c1C (centres undefined) | – | inconclusive: 28.2 µM [inhibitor, partial curve, poor fit]
39 | Cc1cccc(Cn2cc(S(=O)(=O)c3ccccc3)c(=O)c3cc(F)c(N4CCOCC4)cc32)c1 | – | inconclusive: 31.6 µM [inhibitor, partial curve, poor fit]
40 | Cc1nn(C(C)C(=O)N2CCN(c3ccc(F)cc3)CC2)c(=O)c2c1sc1ccccc12 (centres undefined) | – | inconclusive: 28.2 µM [inhibitor, full curve, poor fit]
41 | CCn1cc(C(=O)NCCc2ccccc2)c(=O)c2cc(S(=O)(=O)N3CCCCCC3)ccc21 | – | inconclusive: 50.1 µM [inhibitor, partial curve, poor fit]
42 | CCOc1cc([C@H]2[C@@H]3CCCC[C@]3(O)CCN2Cc2ccccc2F)ccc1O | inactive: 10.2% | –
43 | COc1ccc(-c2nc3ccccc3o2)cc1NC(=O)COc1ccc(C)c(C)c1 | – | inconclusive: 25.1 µM [inhibitor, partial curve, poor fit]
44 | COc1ccc(OC)c(CNC(=O)c2c(C)oc3ncn(CC(C)C)c(=O)c23)c1 | – | inconclusive: 56.2 µM [inhibitor, partial curve, poor fit]
